According to paper PMC9911399, “Two distinct binding modes provide the RNA-binding protein RbFox with extraordinary sequence specificity”:
Where a chain is given by its changes, count along the chain named. The list shows a part of the results.

T1: RBFOX1 RRM RbFoxmut (Fox-RRM*) (Homo sapiens, UniProt Q9NWB1 109-208, R118D;E147R;N151S;E152T)
T1 sequence: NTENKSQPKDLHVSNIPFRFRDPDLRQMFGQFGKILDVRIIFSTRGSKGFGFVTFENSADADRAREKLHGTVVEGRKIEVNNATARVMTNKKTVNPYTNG

B1: CCAGGAU (DNA:RNA)
RNA: GGGAGACCGGAAUUCAGAUUGUCCCCAGGAUUUAAAUCCCGUCGUAGCCACCA
DNA 1: CAATCTGAATTCCGGTCTCCC
DNA 2: TGGTGGCTACGACGGGATT
B2: UCGGCAC (DNA:RNA)
RNA: B1 RNA with C25U, A27G, G29C, U31C
DNA 1: CAATCTGAATTCCGGTCTCCC
DNA 2: TGGTGGCTACGACGGGATT
B3: UUGUAAU (DNA:RNA)
RNA: B1 RNA with C25U, C26U, A27G, G28U, G29A
DNA 1: CAATCTGAATTCCGGTCTCCC
DNA 2: TGGTGGCTACGACGGGATT
B4: CAUAGAG (DNA:RNA)
RNA: B1 RNA with C26A, A27U, G28A, U31G
DNA 1: CAATCTGAATTCCGGTCTCCC
DNA 2: TGGTGGCTACGACGGGATT
B5: CCCACGG (DNA:RNA)
RNA: B1 RNA with A27C, G28A, G29C, A30G, U31G
DNA 1: CAATCTGAATTCCGGTCTCCC
DNA 2: TGGTGGCTACGACGGGATT
B6: AUUACUG (DNA:RNA)
RNA: GGGAGACCGGAAUUCAGAUUGUCCAUUACUGUUAAAUCCCGUCGUAGCCACCA
DNA 1: CAATCTGAATTCCGGTCTCCC
DNA 2: TGGTGGCTACGACGGGATT
B7: CGUCGAG (DNA:RNA)
RNA: B1 RNA with C26G, A27U, G28C, U31G
DNA 1: CAATCTGAATTCCGGTCTCCC
DNA 2: TGGTGGCTACGACGGGATT
B8: CGAGCAC (DNA:RNA)
RNA: B1 RNA with C26G, G29C, U31C
DNA 1: CAATCTGAATTCCGGTCTCCC
DNA 2: TGGTGGCTACGACGGGATT
B9: GUGUGUC (DNA:RNA)
RNA: B6 RNA with A25G, U27G, A28U, C29G, G31C
DNA 1: CAATCTGAATTCCGGTCTCCC
DNA 2: TGGTGGCTACGACGGGATT
B10: CCAUCAU (DNA:RNA)
RNA: B1 RNA with G28U, G29C
DNA 1: CAATCTGAATTCCGGTCTCCC
DNA 2: TGGTGGCTACGACGGGATT
B11: CGACAUC (DNA:RNA)
RNA: B1 RNA with C26G, G28C, G29A, A30U, U31C
DNA 1: CAATCTGAATTCCGGTCTCCC
DNA 2: TGGTGGCTACGACGGGATT
B12: GUUGAUA (DNA:RNA)
RNA: B6 RNA with A25G, A28G, C29A, G31A
DNA 1: CAATCTGAATTCCGGTCTCCC
DNA 2: TGGTGGCTACGACGGGATT
B13: GUGCUGG (DNA:RNA)
RNA: B6 RNA with A25G, U27G, A28C, C29U, U30G
DNA 1: CAATCTGAATTCCGGTCTCCC
DNA 2: TGGTGGCTACGACGGGATT
B14: GAACGUU (DNA:RNA)
RNA: B1 RNA with C25G, C26A, G28C, A30U
DNA 1: CAATCTGAATTCCGGTCTCCC
DNA 2: TGGTGGCTACGACGGGATT
B15: ACUCGCA (DNA:RNA)
RNA: B6 RNA with U26C, A28C, C29G, U30C, G31A
DNA 1: CAATCTGAATTCCGGTCTCCC
DNA 2: TGGTGGCTACGACGGGATT
B16: GAACCAG (DNA:RNA)
RNA: B6 RNA with A25G, U26A, U27A, A28C, U30A
DNA 1: CAATCTGAATTCCGGTCTCCC
DNA 2: TGGTGGCTACGACGGGATT
B17: ACGUAUC (DNA:RNA)
RNA: B6 RNA with U26C, U27G, A28U, C29A, G31C
DNA 1: CAATCTGAATTCCGGTCTCCC
DNA 2: TGGTGGCTACGACGGGATT
B18: CACACGU (DNA:RNA)
RNA: B6 RNA with A25C, U26A, U27C, U30G, G31U
DNA 1: CAATCTGAATTCCGGTCTCCC
DNA 2: TGGTGGCTACGACGGGATT
B19: ACGUACU (DNA:RNA)
RNA: B1 RNA with C25A, A27G, G28U, G29A, A30C
DNA 1: CAATCTGAATTCCGGTCTCCC
DNA 2: TGGTGGCTACGACGGGATT
B20: ACAGCGG (DNA:RNA)
RNA: B6 RNA with U26C, U27A, A28G, U30G
DNA 1: CAATCTGAATTCCGGTCTCCC
DNA 2: TGGTGGCTACGACGGGATT
B21: UUUUCGG (DNA:RNA)
RNA: B6 RNA with A25U, A28U, U30G
DNA 1: CAATCTGAATTCCGGTCTCCC
DNA 2: TGGTGGCTACGACGGGATT
B22: CUAAAUU (DNA:RNA)
RNA: B6 RNA with A25C, U27A, C29A, G31U
DNA 1: CAATCTGAATTCCGGTCTCCC
DNA 2: TGGTGGCTACGACGGGATT
B23: UGUAUGA (DNA:RNA)
RNA: B6 RNA with A25U, U26G, C29U, U30G, G31A
DNA 1: CAATCTGAATTCCGGTCTCCC
DNA 2: TGGTGGCTACGACGGGATT
B24: CCAGCAA (DNA:RNA)
RNA: B1 RNA with G29C, U31A
DNA 1: CAATCTGAATTCCGGTCTCCC
DNA 2: TGGTGGCTACGACGGGATT
B25: CUUCGAA (DNA:RNA)
RNA: B1 RNA with C26U, A27U, G28C, U31A
DNA 1: CAATCTGAATTCCGGTCTCCC
DNA 2: TGGTGGCTACGACGGGATT
B26: GCAUACU (DNA:RNA)
RNA: B1 RNA with C25G, G28U, G29A, A30C
DNA 1: CAATCTGAATTCCGGTCTCCC
DNA 2: TGGTGGCTACGACGGGATT
B27: GGCAACA (DNA:RNA)
RNA: B6 RNA with A25G, U26G, U27C, C29A, U30C, G31A
DNA 1: CAATCTGAATTCCGGTCTCCC
DNA 2: TGGTGGCTACGACGGGATT
B28: AGAGCGU (DNA:RNA)
RNA: B1 RNA with C25A, C26G, G29C, A30G
DNA 1: CAATCTGAATTCCGGTCTCCC
DNA 2: TGGTGGCTACGACGGGATT
B29: UUCUCAC (DNA:RNA)
RNA: B6 RNA with A25U, U27C, A28U, U30A, G31C
DNA 1: CAATCTGAATTCCGGTCTCCC
DNA 2: TGGTGGCTACGACGGGATT
B30: AAAACUA (DNA:RNA)
RNA: B6 RNA with U26A, U27A, G31A
DNA 1: CAATCTGAATTCCGGTCTCCC
DNA 2: TGGTGGCTACGACGGGATT
B31: UUUUAAG (DNA:RNA)
RNA: B6 RNA with A25U, A28U, C29A, U30A
DNA 1: CAATCTGAATTCCGGTCTCCC
DNA 2: TGGTGGCTACGACGGGATT

What follows are binders tested against T1, RBFOX1 RRM RbFoxmut (Fox-RRM*) (assay: EMSA; HiTS-Eq, 1 nM pool, 10 min; buffer printed only for the single-RNA assays: 10 mM Tris pH 7.5, 150 mM NaCl, 3.4 mM EDTA, 0.001% NP-40, 30 C). Details: tags: His6 N-terminal (pET28a); label: 5' 32P.
Summary of the method: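 Purified RbFox RRM, wild type or mutant, was incubated for 10 min in 50 µL with 1 nM of a 5′-radiolabelled RNA pool carrying 7 randomized nucleotides, whose flanks were annealed to DNA oligonucleotides, over a series of increasing protein concentrations. Unbound RNA was resolved on 8% native PAGE, cut out, reverse-transcribed, barcoded by PCR and sequenced on an Illumina HiSeq 2500. Relative association constants were derived from changes in read counts for each RNA species versus the control reaction and normalised to the cognate motif.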

First: B1
Second: B2
The binding signal of the first is higher: 0.0889 KA relative to UGCAUGU for the first, 0.0822 KA relative to UGCAUGU for the second.

First: B3
Second: B4
The binding signal of the first is lower: 0.104 KA relative to UGCAUGU for the first, 0.125 KA relative to UGCAUGU for the second.

B5 and B6 are the same in binding signal: 0.0992 KA relative to UGCAUGU for the first, 0.0992 KA relative to UGCAUGU for the second.

Compared with B7, B8 is lower in binding signal: 0.122 KA relative to UGCAUGU for the first, 0.0944 KA relative to UGCAUGU for the second.

Compared with B9, B10 is lower in binding signal: 0.329 KA relative to UGCAUGU for the first, 0.0963 KA relative to UGCAUGU for the second.

First: B11
Second: B12
The binding signal of the first is lower: 0.0318 KA relative to UGCAUGU for the first, 0.158 KA relative to UGCAUGU for the second.

First: B13
Second: B14
The binding signal of the first is lower: 0.119 KA relative to UGCAUGU for the first, 0.199 KA relative to UGCAUGU for the second.

First: B15
Second: B16
The binding signal of the first is higher: 0.15 KA relative to UGCAUGU for the first, 0.105 KA relative to UGCAUGU for the second.

Compared with B17, B18 is lower in binding signal: 0.185 KA relative to UGCAUGU for the first, 0.12 KA relative to UGCAUGU for the second.

First: B19
Second: B20
The binding signal of the first is higher: 0.113 KA relative to UGCAUGU for the first, 0.101 KA relative to UGCAUGU for the second.

Compared with B21, B22 is higher in binding signal: 0.0516 KA relative to UGCAUGU for the first, 0.0658 KA relative to UGCAUGU for the second.

Compared with B23, B24 is lower in binding signal: 0.44 KA relative to UGCAUGU for the first, 0.0862 KA relative to UGCAUGU for the second.

B25 and B26 are the same in binding signal: 0.125 KA relative to UGCAUGU for the first, 0.125 KA relative to UGCAUGU for the second.

Compared with B27, B28 is higher in binding signal: 0.071 KA relative to UGCAUGU for the first, 0.122 KA relative to UGCAUGU for the second.

First: B29
Second: B30
The binding signal of the first is higher: 0.102 KA relative to UGCAUGU for the first, 0.1 KA relative to UGCAUGU for the second.

With B31 the binding signal was 0.113 KA relative to UGCAUGU.
